Assay results: PMC4336329 (PLoS ONE, 2015)
In all, about 310,000 compounds went through this assay and about 2,200 (0.71%) showed an effect of 50% or more. The effect is printed as a negative number. Some of the results follow.

The compounds below were run against human ether-à-go-go-related gene (hERG) potassium channel (human, UniProt Q12809) (assay: primary screen, population patch clamp on CHO cells stably expressing hERG).
Sequence of human ether-à-go-go-related gene (hERG) potassium channel (Q12809 whole entry, looked up): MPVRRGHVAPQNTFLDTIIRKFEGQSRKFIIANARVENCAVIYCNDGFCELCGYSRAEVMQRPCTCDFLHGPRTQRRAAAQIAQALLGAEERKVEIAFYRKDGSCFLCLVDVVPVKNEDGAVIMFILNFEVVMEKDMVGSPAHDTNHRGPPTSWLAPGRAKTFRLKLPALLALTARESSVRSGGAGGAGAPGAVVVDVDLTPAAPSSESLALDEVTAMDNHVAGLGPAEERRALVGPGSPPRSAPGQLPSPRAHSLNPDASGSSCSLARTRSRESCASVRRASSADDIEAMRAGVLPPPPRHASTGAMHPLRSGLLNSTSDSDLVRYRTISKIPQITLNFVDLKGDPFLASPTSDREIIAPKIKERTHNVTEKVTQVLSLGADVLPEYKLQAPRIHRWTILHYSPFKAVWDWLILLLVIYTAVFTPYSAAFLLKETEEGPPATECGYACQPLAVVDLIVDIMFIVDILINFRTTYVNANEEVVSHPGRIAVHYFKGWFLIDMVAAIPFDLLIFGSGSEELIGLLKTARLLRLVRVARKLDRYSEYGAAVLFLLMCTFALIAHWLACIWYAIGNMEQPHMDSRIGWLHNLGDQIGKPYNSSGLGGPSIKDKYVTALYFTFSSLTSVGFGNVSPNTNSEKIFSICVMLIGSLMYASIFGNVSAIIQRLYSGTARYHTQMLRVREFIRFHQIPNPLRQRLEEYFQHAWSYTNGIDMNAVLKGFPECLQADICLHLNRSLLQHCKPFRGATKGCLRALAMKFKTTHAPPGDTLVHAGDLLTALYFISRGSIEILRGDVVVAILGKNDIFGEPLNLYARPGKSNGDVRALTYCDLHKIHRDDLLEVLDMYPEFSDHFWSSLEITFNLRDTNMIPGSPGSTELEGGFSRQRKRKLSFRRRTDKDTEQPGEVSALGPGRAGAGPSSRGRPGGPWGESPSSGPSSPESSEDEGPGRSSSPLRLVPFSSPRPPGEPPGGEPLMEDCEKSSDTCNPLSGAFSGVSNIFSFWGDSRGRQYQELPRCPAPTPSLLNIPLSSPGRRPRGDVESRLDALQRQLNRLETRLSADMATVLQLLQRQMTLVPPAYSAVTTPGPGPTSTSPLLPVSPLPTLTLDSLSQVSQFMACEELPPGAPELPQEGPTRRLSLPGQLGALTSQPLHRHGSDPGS

Row | SMILES | hERG current change (%, negative = inhibition) at 1uM
1 | Cc1ccc(S(=O)(=O)N2CCN(C(=O)c3ccc([N+](=O)[O-])cc3)C2)cc1 | -14.7%
2 | COC(=O)c1ccc(Cl)c(NC(=O)NC23CC4CC(CC(C4)C2)C3)c1 | 7.25%
3 | COc1ccc(CN2CC[C@H]3C=CC[C@@H](C(=O)NCCc4ccccc4)[C@H]3C2=O)cc1OC | 6.91%
4 | CCCC(=O)C1=C(O)C(C(=O)OC)C(C)(C)CC1=NCCc1ccccc1 (centres unmarked) | 17.5%
5 | Cc1nc2ccc(C(=O)N3CCN(c4ccccc4)CC3)cc2s1 | 8.8%
6 | Cc1ccccc1-n1nnnc1SCC(=O)Nc1ccc(S(=O)(=O)N2CCCC2)cc1 | 12.1%
7 | O=C(O)CSc1nnc(-c2ccccc2O)n1Cc1ccccc1 | 1.17%
8 | CCCCC(CC)C(=O)Nc1ccc(C#N)cc1 (centres unmarked) | -7.62%
9 | COc1ccc(C2CC(c3c(O)n(CCc4ccccc4)c(=O)[nH]c3=O)=NN2)cc1OC (centres unmarked) | 4.53%
10 | CCNC(=S)N(CCO)Cc1cc2cc3c(cc2[nH]c1=O)OCO3 | 14%
11 | CCOC(=O)c1cc(-c2ccc(OC)cc2OC)nn1-c1ccc(C(=O)O)cc1 | 18.3%
12 | CSc1ccc(CNC(=O)C2CCC(=O)N(CCc3cccc(F)c3)C2)cc1 (centres unmarked) | 10.3%
13 | CCn1c(SC)nc(O)c(C(c2ccc(OC)c(O)c2)c2c(O)nc(SC)n(CC)c2=O)c1=O | 9.01%
14 | CC(C)[C@H](NC(=O)N1CC(=O)Nc2ccccc21)C(=O)N[C@H](Cc1ccccc1)C(=O)O | 8.2%
15 | CSc1ccc(C(c2c(C)[nH][nH]c2=O)c2c(C)[nH][nH]c2=O)cc1 | 16.7%
16 | Cc1cccc(C)c1OCC(=O)N1CC2(C)CC1CC(C)(C)C2 (centres unmarked) | 9.34%
17 | O=C1c2ccccc2C(=O)N1CCCn1c(=O)oc2ccccc21 | 14.5%
18 | CN(C)S(=O)(=O)c1cccc(C(=O)OCC(=O)c2ccc3c(c2)NC(=O)CO3)c1 | -6.65%
19 | CC(C)(NO)/C(=N\O)c1ccc(Cl)cc1.Cl | 5.61%
20 | COc1ccc(C(=O)N(C)Cc2cnn(Cc3ccccc3)c2)cc1S(=O)(=O)N1CCOCC1 | 0.372%
21 | CCOc1ccc(C(=O)CCN2CCCCCC2)cc1.Cl | -11.1%
22 | COc1ccc(NC(=O)CN(C)CC(=O)Nc2ccc(C)c(S(=O)(=O)N3CCCCC3)c2)cc1 | 4.66%

Row | SMILES | hERG current change (%, negative = inhibition) at 1uM
23 | CC1(C)CC(=O)C(C=NCCN2CCN(C(=O)Cc3ccc(F)cc3)CC2)=C(O)C1 | -6.96%
24 | COc1ccc(CC(=O)NCc2csc(-c3cccs3)n2)cc1OC | 7.04%
25 | COCCCNC(=O)CSC1=Nc2ccccc2C2=NC(CC(=O)NCc3ccccc3)C(=O)N12 (centres unmarked) | 11.4%
26 | CC(=O)c1c(C)n(-c2ccccc2)c2ccc(O)cc12 | 16%
27 | CC1CCN(C(=O)Cn2nc(C(F)(F)F)c3c2CCCC3)CC1 | 0.104%
28 | Cc1cnc2cc(Cl)c(Cl)cc2n1 | 6.84%
29 | COc1ccc(OCCOc2ccc(C)nc2[N+](=O)[O-])cc1 | 12.1%
30 | O=C(NCc1n[nH]c(=S)n1-c1ccc(Cl)c(Cl)c1)c1cccs1 | 11.5%
31 | CCS(=O)(=O)c1ccc(O)c(NC(=O)COc2ccc(OC)cc2)c1 | 13.5%
32 | O=C(CC1C(=O)NCCN1CC(c1ccccc1)c1ccccc1)NCCc1cn[nH]c1 (centres unmarked) | 15.2%
33 | Cc1ccc(SCCNS(C)(=O)=O)cc1 | 9.33%
34 | COc1ccc(C(=O)Nc2nc(-c3cccs3)c(NC(C)=O)s2)cc1 | 15.8%
35 | CC(C)c1ccc(N(CC(=O)NCc2ccco2)C(=O)CCC(=O)Nc2nccs2)cc1 | 2.23%
36 | O=C(c1ccco1)N1CCN(C(=O)c2cc3c(=O)oc4ccccc4c3s2)CC1 | 1.58%
37 | O=C1CN(C(=S)NC(=O)c2ccc(-c3ccccc3)cc2)CCN1 | 4.58%
38 | CCc1ccccc1N1C(=O)/C(=C/c2ccc(N3CCN(C)CC3)o2)C(=O)NC1=S | 11.8%
39 | Nc1nc2n(n1)C(c1cccc(Br)c1)CC(c1ccc(F)cc1)N2 (centres unmarked) | -23.8%
40 | O=c1c2ccccc2sn1-c1ccc(S(=O)(=O)N2CCCCC2)cc1 | 14.3%
41 | CC(=O)Nc1cccc(NC(=O)CSc2nnc(Cc3cccn3C)n2CCc2ccccc2)c1 | -9.05%
42 | COc1ccccc1CNC(=O)Cn1cccc1 | 4.51%
43 | Cc1ccnc(NS(=O)(=O)c2ccc(-n3cccn3)cc2)c1 | 14.8%
44 | COCCOC(=O)c1c(N)n(Cc2ccccc2)c2nc3ccccc3nc12 | -12.5%

Row | SMILES | hERG current change (%, negative = inhibition) at 1uM
45 | Cl.OC(COCCC12CC3CC(CC(C3)C1)C2)CN1CCCC1 (centres unmarked) | -5%
46 | O=C(O)CCCCCCCCCCCNC(=O)NC12CC3CC(CC(C3)C1)C2 | 15.9%
47 | COc1ccc(-n2c(/C=C/c3cccc(F)c3)nc3ccccc3c2=O)c(OC)c1 | 16.6%
48 | Fc1cccc(NC(=S)Nc2cccc3ccccc23)c1 | -5.02%
49 | O=C(O)c1ccccc1S(=O)(=O)NCC(O)COC1CCCCC1 (centres unmarked) | 1.32%
50 | COc1ccccc1C(=O)NC(=O)COC(=O)CN1C(=O)NC(C)(C)C1=O | 28.2%
51 | NC(=O)C1CCN(CC(=O)Nc2cccc(C(=O)Nc3cccc(C(F)(F)F)c3)c2)CC1 | 5.56%
52 | COc1ccc(/C=C/C(=O)N2CC(C)OC(C)C2)cc1OC (centres unmarked) | 8.4%
53 | COc1cc2c3cc1Oc1cc(ccc1O)C[C@@H]1c4c(cc(OC)c(O)c4Oc4ccc(cc4)C[C@H]3N(C)CC2)CCN1C | -7.98%
54 | COc1ccc(CCNC(=O)Cn2nc(C)c3c(C)n(-c4ccccc4)nc3c2=O)c(OC)c1 | 15.3%
55 | Cc1ccc(N(CCC#N)C(=O)COC(=O)c2ccccn2)cc1 | 12.6%
56 | Cc1ccc(C(=O)N2CCCC(Nc3ccc(C(C)C)cc3)C2)cn1 (centres unmarked) | 15.5%
57 | CCC(=O)Nc1ccccc1C(=O)OCc1ccc(C(=O)c2ccccc2)cc1 | -10.1%
58 | CNC(=O)C1CC(=O)N(Cc2ccc3c(c2)OCO3)C(=Nc2ccc(F)cc2)S1 (centres unmarked) | -4.85%
59 | Cc1ccc(-c2ccc(=O)n(CCC(=O)N3CCN(Cc4ccccc4)CC3)n2)cc1 | -14.4%
60 | CC(C)(C)C(=O)NC(=S)NNC(=O)c1ccc(Cl)cc1Cl | 14.6%
61 | CCCCCCNC(=O)N1C/C=C\C(c2ccc(OC)cc2)N(Cc2ccc(F)cc2)C(=O)C1 (centres unmarked) | 6.54%
62 | C#CCSc1nnc(-c2ccc([N+](=O)[O-])cc2)o1 | 11.7%
63 | Cc1ccc(/C=C/C(=O)OC(C)C(=O)Nc2ncc(Cl)cc2Cl)o1 (centres unmarked) | 15.3%
64 | O=C(Cc1ccccc1)NNC(=O)c1ccc(NC(=O)c2ccccc2)cc1 | 12.6%
65 | O=C(C1COc2ccccc2O1)N1CCN(S(=O)(=O)c2cc(F)ccc2F)CC1 (centres unmarked) | -0.683%
66 | C/C(=N/O)c1c(O)c(C)c(-c2ccccc2)n(-c2ccccc2)c1=O | 11%

Row | SMILES | hERG current change (%, negative = inhibition) at 1uM
67 | COc1ccc(COc2ccsc2C(=O)Nc2ccc(Cl)c(Cl)c2)cc1 | 13.6%
68 | O=C(CCSc1ccc(Br)cc1)c1ccc(O)cc1 | 12.2%
69 | CCOc1ccc(NC(=O)CC2CC(C)(C)OC2=O)cc1 (centres unmarked) | 0.751%
70 | CCCC(C)NC(=O)CSc1nc2ccc(C)cc2[nH]1 (centres unmarked) | 10%
71 | Clc1ccc(-c2csc(N3CCc4ccccc4C3)n2)cc1 | 14.1%
72 | CCOc1ccc(NC(=O)COC(=O)c2cc(S(=O)(=O)N3CCCC3)ccc2C)cc1 | -1.19%
73 | COc1ccccc1N1C(=O)NC(=O)/C(=C\c2cnn(-c3ccccc3)c2)C1=O | 2.18%
74 | Cc1ccc(CCN2C(=O)CCC2(C)C(=O)NC2CCCC2)cc1 (centres unmarked) | 6.06%
75 | COc1cc(/C=N/N2CCN(c3ccccc3OC)CC2)ccc1O | 7.22%
76 | CCCCCCn1c(=O)c(C(=O)Nc2ncccc2C)c(O)c2ccccc21 | 9.79%
77 | COc1ccc(N2CCN(C(=S)NC(=O)c3cccs3)CC2)c([N+](=O)[O-])c1 | -3.68%
78 | CCc1nnc(NC(=O)Cn2nnc(-c3ccccc3F)n2)s1 | 13%
79 | CCOc1ccc(NC(=O)CN(C)C(=O)Cc2c(C)nc3ccccc3c2C)cc1OCC | -14.2%
80 | Cn1c(CNC(=O)Nc2ccccc2)nnc1SCc1ccccc1 | 0.509%
81 | N#CC1=C(N)Nc2nc3ccccc3n2C1c1ccc(Cl)cc1 (centres unmarked) | 6.63%
82 | COc1ccc(-c2nnc(-c3cc4ccccc4oc3=O)o2)cc1 | 13.7%
83 | Cc1ccc(S(=O)(=O)N(CC2CO2)c2ccccc2[N+](=O)[O-])cc1 (centres unmarked) | 10.5%
84 | Cn1c(SCC(=O)NCc2ccco2)nnc1-c1c[nH]c2ccccc12 | 1.37%
85 | O=C(c1cccc(OC2CCN(Cc3cc(F)cc(F)c3)CC2)c1)N1CCCC1 | 3.73%
86 | CC(=O)[C@H]1CC[C@H]2[C@@H]3C=CC4=CC(=O)CC[C@@]4(C)[C@@H]3CC[C@]12C | 10.2%
